Test results published in PubChem BioAssay AID504332 (National Center for Advancing Translational Sciences (NCATS), 2011).
Several values for one entry are separate records, joined by “and”; a condition that tells them apart may be missing. Identical values can stand only once. Hit rate of the full screen: of about 350,000 compounds, about 31,000 (8.9%) were called active. Inconclusive means that the source gave no clear call. Such entries were picked first, then a sample of the others. Calls follow the shape of the dose curve; as a rule, active = well fitted inhibition curve with a large enough effect; inconclusive = small, poorly fitted or top-dose-only effect; inactive = no such curve, though single readings can be large or run the other way. Where the call is inconclusive, the potency comes from a doubtful curve fit.

Molecular target: Histone-lysine N-methyltransferase EHMT2 (Homo sapiens) (UniProt Q96KQ7)
Chain of UniProt Q96KQ7 (Q96KQ7 whole entry, looked up): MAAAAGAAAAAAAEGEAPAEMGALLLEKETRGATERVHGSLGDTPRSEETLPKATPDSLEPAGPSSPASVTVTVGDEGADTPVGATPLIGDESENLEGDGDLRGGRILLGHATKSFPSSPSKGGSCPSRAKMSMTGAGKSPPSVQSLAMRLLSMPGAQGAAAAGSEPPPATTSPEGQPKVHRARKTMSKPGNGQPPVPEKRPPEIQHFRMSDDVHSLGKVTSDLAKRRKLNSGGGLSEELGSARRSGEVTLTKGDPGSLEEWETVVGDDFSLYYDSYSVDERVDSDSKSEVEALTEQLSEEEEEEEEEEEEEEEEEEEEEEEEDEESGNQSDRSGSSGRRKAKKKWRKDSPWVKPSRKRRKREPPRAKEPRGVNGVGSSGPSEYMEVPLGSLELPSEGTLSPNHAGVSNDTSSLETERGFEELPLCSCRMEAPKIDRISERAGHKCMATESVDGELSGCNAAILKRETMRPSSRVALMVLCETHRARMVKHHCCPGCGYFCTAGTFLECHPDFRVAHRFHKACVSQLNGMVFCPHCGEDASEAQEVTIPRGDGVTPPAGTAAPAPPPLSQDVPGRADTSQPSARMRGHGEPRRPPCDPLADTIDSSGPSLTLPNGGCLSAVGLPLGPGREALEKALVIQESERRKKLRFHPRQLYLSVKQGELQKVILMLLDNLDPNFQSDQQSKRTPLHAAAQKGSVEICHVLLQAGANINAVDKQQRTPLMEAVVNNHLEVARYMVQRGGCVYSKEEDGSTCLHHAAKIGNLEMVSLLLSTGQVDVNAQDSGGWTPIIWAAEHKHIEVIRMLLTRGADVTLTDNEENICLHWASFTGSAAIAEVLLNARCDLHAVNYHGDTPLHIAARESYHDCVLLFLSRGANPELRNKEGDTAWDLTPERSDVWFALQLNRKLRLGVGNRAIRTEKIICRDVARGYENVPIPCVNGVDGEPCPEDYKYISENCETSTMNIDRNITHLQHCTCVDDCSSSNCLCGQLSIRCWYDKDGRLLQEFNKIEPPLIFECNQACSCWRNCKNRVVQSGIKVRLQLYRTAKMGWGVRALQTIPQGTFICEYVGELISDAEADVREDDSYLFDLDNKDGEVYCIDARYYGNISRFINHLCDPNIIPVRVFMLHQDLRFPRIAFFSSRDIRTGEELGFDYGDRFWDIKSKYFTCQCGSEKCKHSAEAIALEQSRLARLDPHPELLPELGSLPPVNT
Test: qHTS Assay for Inhibitors of Histone Lysine Methyltransferase G9a; also: nearly all actives have a fitted effect of over 75% in size
Settings: G9a H3K9 monomethylation, AlphaScreen, 2 h; activity, negative = inhibition: at 59 µM (top of the series) unless noted
In short: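 AlphaScreen read-out: biotin-H3K9 peptide (500 nM) methylation by 20 nM enzyme with 20 uM SAM, 2 h at room temperature after 15 min compound preincubation; anti-monomethyl H3K9 antibody plus donor/acceptor beads, 10 min dark.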
% is scaled to controls: 0 for no effect and ±100 for the full control effect; potency is read from the fitted curve at half-maximal effect; tags tell the direction and shape of the fitted curve.

SMILES | activity, negative = inhibition | Potency
COc1ccc(CCNC(=S)N(C)C)cc1OC | inactive: 4.09% [at 102 µM] | –
CCc1nnc(NC(=O)CCc2ccccc2OC)s1 | – | inconclusive: 35.5 µM [inhibitor, single point]
CCOC(=O)CC1C(=O)NCCN1S(=O)(=O)c1ccc(NC(C)=O)cc1 (stereo not given) | inactive: 19.9% [at 102 µM] | –
Cc1ccc2c(c1)CCCN2C(=O)c1cccs1 | – | inconclusive: 50.1 µM [inhibitor, partial curve, poor fit]
Cc1ccc(S(=O)(=O)N2CCN(C(=O)CCn3nc(C)c(C)c3C)CC2)cc1C | inactive: 26.5% [at 102 µM] | –
O=C(CN1C2=NCCCN2c2ccccc21)c1ccc([N+](=O)[O-])cc1 | – | active: 39.8 µM
CN1CCN(c2ccc(-c3cccc(NC(=O)COc4ccccc4)c3)nn2)CC1 | – | inconclusive: 79.4 µM [inhibitor, single point]
CCc1ccc(-n2nc3cc(C)c(NC(=O)c4cc(OC)cc(OC)c4)cc3n2)cc1 | – | active: 5.62 µM
O=C(c1ccco1)N(Cc1cc2ccccc2[nH]c1=O)CC1CCCO1 (stereo not given) | inactive: 5.14% [at 102 µM] | –
O=C1N/C(=C/c2ccco2)C(=O)N1Cc1ccccc1F | – | active: 31.6 µM
CCC(=O)NS(=O)(=O)c1ccc(N=NN2CCCCC2)cc1 | – | inconclusive: 14.1 µM [inhibitor, partial curve, poor fit]
O=C(Nc1ccc(N2CCOCC2)c2nonc12)C1CCCC1 | – | inconclusive: 25.1 µM [inhibitor, partial curve, poor fit]
CC(C)CCn1nnnc1C(c1ccc(N(C)C)cc1)N1CCN(C(=O)c2ccco2)CC1 (stereo not given) | – | active: 50.1 µM
Cc1nn(C)c(C)c1N1C(=O)c2cccc3c(Br)ccc(c23)C1=O | – | inconclusive: 10 µM [inhibitor, partial curve, poor fit]
Cc1ccc(C(=O)N2CCN(C)CC2)cc1S(=O)(=O)N1CCCCCC1 | inactive: 18.6% [at 102 µM] | –
C1CCN=C(Nc2nc3c(s2)CCCC3)CC1 | inconclusive: -53.8% [inhibitor] | –
O=C(Nc1ncccc1O)c1ccc(Cl)c(S(=O)(=O)N2CCCCCC2)c1 | – | inconclusive: 56.2 µM [inhibitor, partial curve, poor fit]
O=C(c1cc2ccccc2oc1=O)N1CCN(c2ccc(F)cc2)CC1 | inactive: -1.85% | –
CC(C)C[C@@H]1NC(=O)N(CCN2CCOCC2)C1=O | – | inconclusive: 89.1 µM [inhibitor, single point]
CC(C)c1onc(C(=O)N2C(C)CCCC2C)c1[N+](=O)[O-] (stereo not given) | inactive: -7.56% | –
COc1ccccc1CCN1CCCC(CN(C)C(=O)c2ccc3nc[nH]c3c2)C1 (stereo not given) | – | inconclusive: 70.8 µM [inhibitor, partial curve, poor fit]
O=C(Nc1c(F)cc(F)cc1Br)C1CCCO1 (stereo not given) | inactive: -9.8% | –
NC(=O)c1cc[n+](CC2=C(C(=O)O)N3C(=O)[C@@H](NC(=O)[C@@H](c4ccccc4)S(=O)(=O)[O-])[C@H]3SC2)cc1 | – | active: 8.91 µM and active: 3.77 µM
Cc1nc(N)sc1C(=O)Nc1ccccc1 | – | active: 50.1 µM

SMILES | activity, negative = inhibition | Potency
CC1CCCCN1C(=O)c1cc2c(=O)n3ccccc3nc2s1 (stereo not given) | – | inconclusive: 89.1 µM [inhibitor, single point]
O=C1N=C(N2CCN(c3ccccc3)CC2)S/C1=C/c1cccs1 | inactive: -20% | –
Cc1cc2c(N=NC(=O)C3CC3c3ccccc3)c(O)[nH]c2cc1Br (stereo not given) | – | inconclusive: 1.78 µM [inhibitor, partial curve, poor fit]
Cc1cc(C)c2cc3c(N)c(C(=O)N4CCc5ccccc5C4)sc3nc2c1 | – | active: 10 µM
Nc1c(C(=O)Nc2ccc(S(=O)(=O)N3CCCC3)cc2)sc2nc3cc4c(cc3cc12)CCC4 | – | inconclusive: 89.1 µM [inhibitor, single point]
CCc1cccc(C)c1NS(=O)(=O)Cc1ccccc1 | – | active: 79.4 µM
CNC(=S)N(CCc1c(C)[nH]c2ccc(OC)cc12)Cc1cccnc1 | – | inconclusive: 11.2 µM [inhibitor, partial curve, poor fit]
N#Cc1c(-n2ncnc2-c2ccccc2C(F)(F)F)sc2c1CCCCC2 | – | inconclusive: 3.55 µM [inhibitor, full curve, poor fit]
CCCN(CCC)C(=O)CSc1nc2n[nH]c(C)c2c(=N)n1-c1ccc(OC)cc1 | – | inconclusive: 79.4 µM [inhibitor, partial curve]
CCOC(=O)c1ccc(Nc2c(-c3cccc(O)c3)nc3nc[nH]n23)cc1 | – | inconclusive: 11.2 µM [inhibitor, partial curve, poor fit]
CN(C(=O)CSc1nnc(Cc2cccs2)n1C1CC1)C1CCS(=O)(=O)C1 (stereo not given) | – | inconclusive: 70.8 µM [inhibitor, single point]
CN(Cc1c(C(=O)N(C)Cc2ccccc2)nc2ccccn12)CC1Cc2ccccc2O1 (stereo not given) | – | inconclusive: 39.8 µM [inhibitor, single point]
CN(C(=O)CSc1nnc(-c2ccco2)n1C)C1CCCCC1 | – | inconclusive: 89.1 µM [inhibitor, single point]
CCOc1cc(-c2ccc(OC(=O)c3ccc(C)cc3)c(OC)c2)cc(=O)c2c(C)oc(C)c12 | – | inconclusive: 20 µM [inhibitor, partial curve, poor fit]
Nc1c(-c2nc(-c3ccccc3)no2)nnn1CC(=O)Nc1cccc(F)c1 | – | inconclusive: 3.98 µM [inhibitor, full curve, poor fit]
CCOc1ccc(S(=O)(=O)NCCc2csc3nc(-c4ccc(F)cc4)nn23)cc1 | inactive: -42.5% | –
COc1ccc([N+](=O)[O-])cc1NC(=O)CC1SC(=Nc2cccc(C)c2C)N(/N=C/c2cccc(OC)c2OC)C1=O (stereo not given) | – | active: 35.5 µM
Cc1ccc(C)c(Cn2c(=O)n(Cc3ccccc3)c(=O)c3c2c2cc(C)ccc2n3C)c1 | – | inconclusive: 2.82 µM [inhibitor, partial curve, poor fit]
Cc1ccc(-c2nn(Cc3ccccc3)cc2/C=C/C(=O)O)cc1 | inactive: -3.77% [at 102 µM] | –
CCCC(=O)NNC(=O)CC(=O)Nc1ccccc1C(=O)O | – | active: 50.1 µM
CCOC(=O)C(=O)N1c2ccccc2C(N(C(=O)C(=O)OCC)c2ccccc2)CC1C (stereo not given) | inactive: -3.07% [at 102 µM] | –
O=C(NCc1cccs1)c1ccc(CSc2nc3ccncc3n2Cc2ccccc2)cc1 | – | inconclusive: 2.24 µM [inhibitor, partial curve, poor fit]
COc1cc(NC(=O)CNS(=O)(=O)c2cccs2)cc(OC)c1OC | inactive: 6.47% | –
CCCCC(CC)CNCc1cccn1CCN1CCOCC1 (stereo not given) | – | inconclusive: 89.1 µM [inhibitor, single point]

SMILES | activity, negative = inhibition | Potency
CC(C)C[C@H](NC(=O)[C@@H]1Cc2c([nH]c3ccccc23)C2c3ccccc3C(=O)N21)C(=O)NCC1CCCO1 (stereo not given in full) | – | inconclusive: 100 µM [inhibitor, single point]
CSc1nsc(SCC(=O)Nc2ccc(C(=O)O)cc2)n1 | – | inconclusive: 79.4 µM [inhibitor, partial curve, poor fit]
CS(=O)(=O)c1ccc(Cl)c(C(=O)NC2CCSc3ccccc32)c1 (stereo not given) | – | inconclusive: 79.4 µM [inhibitor, single point]
COCCNC(=S)N(C)C1(c2ccccc2Cl)CCCCC1=O (stereo not given) | – | active: 44.7 µM
CC(=O)N(Cc1ccccc1)c1ncc2c(n1)c(=O)c(C#N)c1ccccn12 | – | inconclusive: 3.16 µM [inhibitor, single point]
Cc1occc1C(=O)N1CCN(S(C)(=O)=O)CC1 | – | inconclusive: 28.2 µM [inhibitor, partial curve, poor fit]
Fc1ccc(CSc2nc(NCc3ccccc3)c3ccccc3n2)cc1 | inactive: 1.81% | –
Cn1c(N)c(C(=O)NCc2ccccc2Cl)sc1=S | inactive: -31.6% [at 12.7 µM] | –
OCCC1CN(Cc2ccccc2O)CCN1CCCc1ccccc1 (stereo not given) | – | inconclusive: 12.6 µM [inhibitor, partial curve, poor fit]
CCOc1ccc(NC(=O)CCCN2C(=S)NC(C)(C)CC2C)cc1 (stereo not given) | – | inconclusive: 20 µM [inhibitor, partial curve, poor fit]
Cc1ccc(-c2csc(N3CCC(C(N)=O)(N4CCCCC4)CC3)n2)cc1 | – | inconclusive: 89.1 µM [inhibitor, single point]
CC1(OC(=O)CCc2ccccc2)C(=O)C=C2C=C(c3ccc(C#N)cc3)N(C3CCCC3)C=C2C1=O (stereo not given) | inconclusive: -69% [inhibitor] [at 12.7 µM] | –
O=C(Nc1ccccn1)c1ccc2ccccc2c1O | – | active: 31.6 µM
CCCC/C(O)=C1\C(=O)CCCC1=NCCc1c(C)[nH]c2ccc(OC)cc12 | – | active: 70.8 µM
Cc1cc(=O)[nH]c(N/N=C/C=C/c2ccccc2)n1 | inactive: 33.8% [at 102 µM] | –
C=CCNC(=S)NNc1nc(N2CCCC2)nc(N2CCCC2)n1 | – | inconclusive: 14.1 µM [inhibitor, single point]
COc1ccc(NC(=O)c2ccc(S(=O)(=O)N3CCCCC3)cc2)c(OC)c1 | – | inconclusive: 79.4 µM [inhibitor, single point]
CCN(CC)c1ccc(-n2cc3c(=O)n(C)c(=O)n(C)c3c2)cc1 | inactive: -39.1% [at 12.7 µM] | –
COc1cc(/C=N/NC(=O)CCn2cnc(-c3ccccc3)c2-c2ccccc2)ccc1O | – | active: 44.7 µM
CCOc1ccc(CCNC(=O)c2cc3c(s2)-c2c(C)cccc2OC3)cc1 | inactive: -0.46% | –
CN1/C(=C/C(=O)C2CCC2)Sc2ccccc21 | – | inconclusive: 28.2 µM [inhibitor, partial curve]
CCc1ccccc1N(CC(=O)NC(C)c1ccccc1)S(C)(=O)=O (stereo not given) | – | inconclusive: 0.708 µM [inhibitor, partial curve, poor fit]
